Reference: the supplement of paper PMC7125110
± gives the standard error. This sample is rich in variants without activity.

B1: glmS ribozyme (parent)
chain: AUAAAAGCGCCAGAACUACAGAAAUGUAGUUGACGAGGAGGAGGUUUAUCGAAUUUUCGGCGGAUGCCUCCAAA

Experiments:
Settings in all cases: with glucosamine-6-phosphate
glucosamine-6-phosphate [1] = variants of: B1; experiment: self-cleavage kobs at 640 uM GlcN6P; higher = faster cleavage; RNA array
In short: (§1)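 The measurements used barcoded ribozyme variants on sequenced MiSeq chips, transcribed in situ by E. coli RNA polymerase and tracked at 37 °C with a hybridised Cy3 probe. Glucosamine-6-phosphate, 40 μM to 10 mM in HEPES/KCl/Mg(OAc)2 buffer, was flowed in while tiles were imaged over ~14 h. Baseline-normalised signals, also normalised to non-cleaving reference variants, gave per-tile medians that were fit to one- or two-exponential decays for kobs. kcat and KM resulted from weighted Michaelis–Menten fits across concentrations.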

glucosamine-6-phosphate [2] = variants of: B1; experiment: self-cleavage kobs at 2500 uM GlcN6P; higher = faster cleavage; RNA array
In short: as §1

glucosamine-6-phosphate [3] = variants of: B1; experiment: self-cleavage kobs at 10000 uM GlcN6P; higher = faster cleavage; RNA array
In short: as §1

glucosamine-6-phosphate [4] = variants of: B1; experiment: self-cleavage kobs at 160 uM GlcN6P; higher = faster cleavage; RNA array
In short: as §1

| Variant | self-cleavage kobs at 640 uM GlcN6P (glucosamine-6-phosphate [1]) [s⁻¹] | self-cleavage kobs at 2500 uM GlcN6P (glucosamine-6-phosphate [2]) [s⁻¹] | self-cleavage kobs at 10000 uM GlcN6P (glucosamine-6-phosphate [3]) [s⁻¹] | self-cleavage kobs at 160 uM GlcN6P (glucosamine-6-phosphate [4]) [s⁻¹] |
| --- | --- | --- | --- | --- |
| AUAAAAGCGCCAGAACUACAGAAAUGUAGUUGACGAGGAGGUGGUUAAUCGAACUUUCGGCGGAUGCCUCCAAA [A42U U47A U54C] | 3.85e-05 ± 9.6e-06 |  |  |  |
| AUAAAAGCGCCAGAACUACAGAAAUGUAGUUGACGAGGAGGCGGUUUAUCGAAUUUUCGGCGGAAGCCUCCAAA [A42C U65A] | < 1e-05 | < 1e-05 | < 1e-05 |  |
| AUAAAAGCGCCAGAACUACAGAAAUGUAGUUGACGAGGAGGAACUUUAUCUAAUUUUCGGCGCAUGCCUACAAA [G43A G44C G51U G63C C70A] | < 1e-05 |  |  |  |
| AUAAAAGCGCCAGAACUACAGAAAUGUAGUUGACGAGGAGGCAGUUUAUCGAAUUUUCGGCGGAUGCCUCCAAA [A42C G43A] | < 1e-05 | < 1e-05 | < 1e-05 | < 1e-05 |
| AUAAAAGCGCCAGAACUACAGAAAUGUAGUUGACGAGGAGGACGUUUGUCGAAUUUUCGGCGGAUGCCUCGAAA [G43C A48G C71G] | < 1e-05 | < 1e-05 |  | < 1e-05 |
| AUAAAAGCGCCAGAACUACAGAAAUGUAGUUGACGAGGAGGAAGUUUAUCGAACUUUCGGCGUAUUCCUCGAAA [G43A U54C G63U G66U C71G] | < 1e-05 |  |  |  |
| AUAAAAGCGCCAGAACUACAGAAAUGUAGUUGACGAGGAGGGGGUUUUUCGAAUUUUCGGCGGAUGCCUCCAAA [A42G A48U] | 0.000148 ± 4.3e-05 |  | 0.000576 ± 0.00013 |  |
| AUAAAAGCGCCAGAACUACAGAAAUGUAGUUGACGAGGAGGUGGUUUAUCGUAUUGUCGGCGGAUGCCUCCAAA [A42U A52U U56G] | < 1e-05 |  |  |  |
| AUAAAAGCGCCAGAACUACAGAAAUGUAGUUGACGAGGAGGUGGUUUAUAGAAUUUUCGGCGGAUGCCUCCAAA [A42U C50A] | < 1e-05 | < 1e-05 |  |  |
| AUAAAAGCGCCAGAACUACAGAAAUGUAGUUGACGAGGAGGCGGUUUAUCGGAUUUUCGGCGGAUGUCUCCAAA [A42C A52G C67U] | < 1e-05 | < 1e-05 |  | < 1e-05 |
| AUAAAAGCGCCAGAACUACAGAAAUGUAGUUGACGAGGAGGUGGUUUACCGAAUUUUCGGUGGAUGCCUCCAAA [A42U U49C C61U] | < 1e-05 |  |  |  |
| AUAAAAGCGCCAGAACUACAGAAAUGUAGUUGACGAGGAGGCGGUUGAUCGAAUUUCCGGCGGAUGCCUCCAAA [A42C U47G U57C] | < 1e-05 |  |  |  |
| AUAAAAGCGCCAGAACUACAGAAAUGUAGUUGACGAGGAGGGGGUUGAUCGAAUUUUCGGCGGAUGUCUCCAAA [A42G U47G C67U] | 0.00108 ± 0.00019 | 0.0013 ± 0.00029 |  |  |
| AUAAAAGCGCCAGAACUACAGAAAUGUAGUUGACGAGGAGGUGGUUUAUCGAAUUUACGGCGGAUGCCUCCAAA [A42U U57A] | < 1e-05 | < 1e-05 |  | < 1e-05 |
| AUAAAAGCGCCAGAACUACAGAAAUGUAGUUGACGAGGAGGCGGUUUAUCGAAUCUUCGGCGGAAGUUUGCAAA [A42C U55C U65A C67U C68U C70G] | < 1e-05 | < 1e-05 |  |  |
| AUAAAAGCGCCAGAACUACAGAAAUGUAGUUGACGAGGAGGGGAUUUAUCGAAUUAUCCGCGGAUGCAUCCAAA [A42G G44A U56A G59C C68A] | < 1e-05 | < 1e-05 |  |  |
| AUAAAAGCGCCAGAACUACAGAAAUGUAGUUGACGAGGAGGAAGAUUAUCGAAUUUUCGGGGGAUGCCUCCAAA [G43A U45A C61G] | < 1e-05 |  |  | < 1e-05 |
| AUAAAAGCGCCAGAACUACAGAAAUGUAGUUGACGAGGAGGAAGUGUAUCGAAUUUUCGGCGGAUGCCUGCAAA [G43A U46G C70G] | < 1e-05 | < 1e-05 |  |  |
| AUAAAAGCGCCAGAACUACAGAAAUGUAGUUGACGAGGAGGCGGUUUAUCGAAUUUUUGGCGGAUGCCUCCAAA [A42C C58U] | < 1e-05 |  |  | < 1e-05 |
